# Source: the supplement of paper PMC10126150
# Sequences with one replicate were seen in a single cluster, so their values are uncertain.
# Tested on: ATP
# Experiment: switch fluorescence ratio, 500 uM ATP over buffer (Cy3 cluster intensity, sum of 5 cycles each) (fold (ratio)); higher = stronger signal-on switching upon ATP binding; sequences stand for … in TCGTCGGCAGCGTCAGATGTGTATAAGAGACAGTTTTTTTTTTTTTTTTTTTTTTTTT…TC
# Conditions: aptamer strand: ATP DNA aptamer (quencher-CACCTGGGGGAGTATTGCGGAGGAAGG + anchor), 100 nM annealed; ATP concentration: 500 uM; one replicate
# How it was run: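 Between each of five buffer/ATP cycles, the flow-cell was stripped with NaOH and re-annealed. Each cycle imaged Cy3-labelled switching-strand clusters, annealed to 100 nM quencher-labelled ATP aptamer on a modified Illumina MiSeq flow-cell, first in selection buffer and then after 15 min with 500 uM ATP at 22 °C. The fluorescence ratio is summed target-cycle over summed buffer-cycle Cy3 intensity per cluster, averaged per switch-domain sequence, with clusters outside 100-1000 RFU excluded.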
# 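Further: ATP exposure 15 min at 22 °C before imaging.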
row,Sequence,switch fluorescence ratio
1,GAGTAGTAGC,0.959
2,GAGTATATGA,1.03
3,GAGTATGAAC,0.975
4,GAGTATTCCT,1.04
5,GAGTATTTCG,0.949
6,GAGTCCAAGA,1.23
7,GAGTCCGACA,1.66
8,GAGTCCTACC,0.965
9,GAGTCGCTTT,0.969
10,GAGTCGTCTA,0.957
11,GAGTCTCGAG,0.985
12,GAGTCTGCAT,3.12
13,GAGTGAAAG,1.04
14,GAGTGACATC,0.892
15,GAGTGAGGCT,0.981
16,GAGTGCTGCG,1
17,GAGTGGGTCC,1.02
18,GAGTGGTTAT,1.01
19,GAGTGTCATG,0.971
20,GAGTGTGAAT,0.992
21,GAGTGTTTT,1.06
22,GAGTTACCCT,1.01
23,GAGTTCGGGT,0.981
24,GAGTTCTTAC,1.02
25,GAGTTCTTCC,1.28

row,Sequence,switch fluorescence ratio
1,GAGTTGAAGA,0.999
2,GAGTTGATTG,0.998
3,GAGTTTTTAG,0.937
4,GATAAACAGG,1.02
5,GATAAACGGA,0.99
6,GATAAACGTG,1
7,GATAAAGCAT,1.06
8,GATAAATCAG,1.02
9,GATAACATTT,0.991
10,GATAATGGGA,1.02
11,GATACAAGC,0.995
12,GATACCGAAC,1.57
13,GATACGCGAT,2.21
14,GATACGGCAG,1
15,GATAGAATT,1
16,GATAGACATA,1.07
17,GATAGAGCAG,1.02
18,GATAGATTTT,0.997
19,GATAGCTCCT,1.01
20,GATAGGTGTA,0.964
21,GATAGTAACC,0.971
22,GATAGTTAGA,1.05
23,GATATAAGGA,1.02
24,GATATACGGA,1.04
25,GATATAGGAC,1.05

row,Sequence,switch fluorescence ratio
1,GATATATGTC,0.955
2,GATATCACGC,1.05
3,GATATCATAA,1.02
4,GATATCGCAA,5.64
5,GATATCGGG,1
6,GATATGCATC,1.02
7,GATATGGGTC,1.02
8,GATATGTCGA,1.01
9,GATATTACCA,1.05
10,GATATTACTC,1.08
11,GATATTACTT,0.977
12,GATATTATAG,0.989
13,GATATTCAA,0.941
14,GATCAACCAT,0.983
15,GATCAATTAT,1.09
16,GATCAATTCG,0.984
17,GATCAGCCTA,0.959
18,GATCAGTAGA,1.17
19,GATCAGTGGA,1.01
20,GATCATTCTC,0.986
21,GATCCAAAAT,1.04
22,GATCCACTGG,1.03
23,GATCCATGAC,1.04
24,GATCCCAGCT,0.984
25,GATCCGGAGA,1.07

row,Sequence,switch fluorescence ratio
1,GATCCGTATA,1.22
2,GATCCTCGAG,1.05
3,GATCCTGCAT,1.22
4,GATCCTGCTG,1.06
5,GATCCTGTTG,1.07
6,GATCGACGCA,1.71
7,GATCGAGAGT,0.963
8,GATCGAGTAT,1.01
9,GATCGCCGGC,1.04
10,GATCGCCTCG,0.981
11,GATCGGCGGT,1.04
12,GATCGGGCAT,1
13,GATCGGTTCA,1.02
14,GATCTAGCCG,0.992
15,GATCTAGCG,0.948
16,GATCTATATG,0.941
17,GATCTATTAC,1
18,GATCTGATTG,1.01
19,GATCTGTCTA,1.01
20,GATCTTCTTG,0.971
21,GATCTTCTTT,0.984
22,GATCTTGGCG,0.967
23,GATCTTGGCT,0.999
24,GATCTTTG,0.978
25,GATGAAGAGA,1.01
